These are yes or no findings as the source states them, for the method shown. Binding seen in cells or lysates may run through a third protein. Some entries that bind do so weakly or less than the wild type. For part of these data: Tags and fused reporters may be left off the sequences shown.
T1: N-terminally HA-tagged prostaglandin E2 receptor EP1, human (human) (UniProt P34995)
T1 sequence: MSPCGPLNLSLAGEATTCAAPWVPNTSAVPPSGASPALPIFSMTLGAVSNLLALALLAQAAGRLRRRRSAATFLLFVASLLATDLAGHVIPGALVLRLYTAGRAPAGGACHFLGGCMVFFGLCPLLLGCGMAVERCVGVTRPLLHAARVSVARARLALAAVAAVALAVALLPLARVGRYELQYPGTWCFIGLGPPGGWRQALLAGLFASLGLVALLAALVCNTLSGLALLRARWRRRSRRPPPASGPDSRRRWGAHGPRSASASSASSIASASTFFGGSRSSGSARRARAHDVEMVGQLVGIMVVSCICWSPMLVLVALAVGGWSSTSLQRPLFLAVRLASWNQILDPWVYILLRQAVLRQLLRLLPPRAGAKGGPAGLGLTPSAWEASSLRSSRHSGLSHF

Protein sequences, listed by entry. Tags and fused reporters are not part of them. Lines headed by an entry give the natural chain unless they say otherwise; changes in a name come on top. Chains listed by the source or under a name are the forms on record and can include a tag or linker. Residues count along the entry.
C-terminally FLAG/Myc-tagged GPRC5B (G Protein-Coupled Receptor Class C Group 5 Member B), human (Q9NZH0, residues 29-403): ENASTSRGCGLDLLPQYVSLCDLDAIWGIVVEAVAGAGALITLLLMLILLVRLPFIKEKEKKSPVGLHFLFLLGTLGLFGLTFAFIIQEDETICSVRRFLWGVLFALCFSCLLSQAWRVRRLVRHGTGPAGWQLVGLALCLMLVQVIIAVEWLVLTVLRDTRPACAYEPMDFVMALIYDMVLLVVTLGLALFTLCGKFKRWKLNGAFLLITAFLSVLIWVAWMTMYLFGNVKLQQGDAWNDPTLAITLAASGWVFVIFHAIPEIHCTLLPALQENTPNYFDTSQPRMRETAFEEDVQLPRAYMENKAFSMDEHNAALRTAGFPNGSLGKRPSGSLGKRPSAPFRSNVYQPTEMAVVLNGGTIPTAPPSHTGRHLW
GPRC5B mutant set 3 (Q116A, D118A, L128A), human, C-Myc-FLAG (Q9NZH0-1, form named): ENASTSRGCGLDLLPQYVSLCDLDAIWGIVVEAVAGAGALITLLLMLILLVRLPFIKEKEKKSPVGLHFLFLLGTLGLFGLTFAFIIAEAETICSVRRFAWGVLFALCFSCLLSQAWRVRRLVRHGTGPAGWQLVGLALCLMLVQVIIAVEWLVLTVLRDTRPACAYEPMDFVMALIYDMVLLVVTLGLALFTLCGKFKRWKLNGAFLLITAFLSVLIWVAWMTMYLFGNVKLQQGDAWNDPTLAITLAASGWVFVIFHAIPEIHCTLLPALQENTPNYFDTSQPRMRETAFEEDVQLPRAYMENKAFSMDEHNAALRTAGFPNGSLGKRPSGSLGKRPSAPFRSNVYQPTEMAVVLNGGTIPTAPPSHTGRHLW
GPRC5B mutant set 2 (F111A), human, C-Myc-FLAG (Q9NZH0-1, form named): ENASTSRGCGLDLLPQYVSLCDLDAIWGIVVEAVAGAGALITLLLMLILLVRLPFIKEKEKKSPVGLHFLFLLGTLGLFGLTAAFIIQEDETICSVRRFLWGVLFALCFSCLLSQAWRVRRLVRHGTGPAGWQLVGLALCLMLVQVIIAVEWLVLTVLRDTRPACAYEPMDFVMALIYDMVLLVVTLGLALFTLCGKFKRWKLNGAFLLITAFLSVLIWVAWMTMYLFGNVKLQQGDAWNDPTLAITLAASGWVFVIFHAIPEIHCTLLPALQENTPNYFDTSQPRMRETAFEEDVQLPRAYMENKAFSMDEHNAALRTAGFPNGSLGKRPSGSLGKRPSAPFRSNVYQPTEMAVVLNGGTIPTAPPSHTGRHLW
UniProt Q62053: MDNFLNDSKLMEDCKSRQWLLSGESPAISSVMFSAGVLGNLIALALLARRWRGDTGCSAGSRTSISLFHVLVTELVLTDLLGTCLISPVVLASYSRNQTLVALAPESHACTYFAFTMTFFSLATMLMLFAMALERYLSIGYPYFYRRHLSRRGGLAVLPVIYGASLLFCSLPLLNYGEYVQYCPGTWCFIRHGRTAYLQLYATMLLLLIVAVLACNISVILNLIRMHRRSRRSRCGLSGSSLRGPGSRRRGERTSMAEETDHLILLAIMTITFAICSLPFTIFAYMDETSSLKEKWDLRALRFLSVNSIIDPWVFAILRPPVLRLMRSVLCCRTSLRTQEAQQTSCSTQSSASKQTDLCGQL
UniProt Q13258: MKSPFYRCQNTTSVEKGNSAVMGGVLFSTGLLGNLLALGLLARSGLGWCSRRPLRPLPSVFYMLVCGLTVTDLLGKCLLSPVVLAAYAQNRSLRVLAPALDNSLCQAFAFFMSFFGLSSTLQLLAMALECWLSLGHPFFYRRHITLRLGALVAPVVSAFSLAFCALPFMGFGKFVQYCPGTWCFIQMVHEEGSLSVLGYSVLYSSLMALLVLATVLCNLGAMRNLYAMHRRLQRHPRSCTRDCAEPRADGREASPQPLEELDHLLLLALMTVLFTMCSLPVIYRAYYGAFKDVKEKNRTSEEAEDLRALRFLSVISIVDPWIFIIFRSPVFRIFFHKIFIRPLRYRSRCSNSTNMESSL
UniProt P43119: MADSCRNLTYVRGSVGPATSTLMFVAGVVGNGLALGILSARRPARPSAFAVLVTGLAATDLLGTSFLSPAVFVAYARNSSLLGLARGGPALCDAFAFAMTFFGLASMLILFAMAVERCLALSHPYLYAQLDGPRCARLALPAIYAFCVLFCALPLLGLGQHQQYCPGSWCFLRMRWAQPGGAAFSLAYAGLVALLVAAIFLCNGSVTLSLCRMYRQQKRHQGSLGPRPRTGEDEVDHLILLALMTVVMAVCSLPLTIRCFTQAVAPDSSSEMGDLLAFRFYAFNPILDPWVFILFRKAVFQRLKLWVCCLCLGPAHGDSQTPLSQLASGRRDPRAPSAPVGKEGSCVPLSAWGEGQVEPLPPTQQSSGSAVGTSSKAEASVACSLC
UniProt P43116: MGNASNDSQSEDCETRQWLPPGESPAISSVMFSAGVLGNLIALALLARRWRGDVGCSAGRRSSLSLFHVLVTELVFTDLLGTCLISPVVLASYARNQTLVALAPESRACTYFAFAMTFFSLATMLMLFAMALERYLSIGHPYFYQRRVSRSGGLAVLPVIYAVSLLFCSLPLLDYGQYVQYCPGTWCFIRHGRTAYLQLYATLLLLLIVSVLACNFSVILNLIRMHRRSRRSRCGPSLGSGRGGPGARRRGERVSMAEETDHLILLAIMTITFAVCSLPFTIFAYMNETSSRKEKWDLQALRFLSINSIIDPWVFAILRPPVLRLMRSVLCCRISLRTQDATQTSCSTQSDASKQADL
UniProt P51681: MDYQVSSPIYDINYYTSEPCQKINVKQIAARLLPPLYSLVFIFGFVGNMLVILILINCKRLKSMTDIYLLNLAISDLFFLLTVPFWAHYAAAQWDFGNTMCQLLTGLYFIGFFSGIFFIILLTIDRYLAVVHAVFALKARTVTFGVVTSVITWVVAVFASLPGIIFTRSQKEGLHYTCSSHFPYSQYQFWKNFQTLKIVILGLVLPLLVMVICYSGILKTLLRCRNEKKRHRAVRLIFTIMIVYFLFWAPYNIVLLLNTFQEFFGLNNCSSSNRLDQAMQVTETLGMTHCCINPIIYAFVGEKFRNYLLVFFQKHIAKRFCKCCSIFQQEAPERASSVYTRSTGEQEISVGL
UniProt Q923Z0, residues 29-410: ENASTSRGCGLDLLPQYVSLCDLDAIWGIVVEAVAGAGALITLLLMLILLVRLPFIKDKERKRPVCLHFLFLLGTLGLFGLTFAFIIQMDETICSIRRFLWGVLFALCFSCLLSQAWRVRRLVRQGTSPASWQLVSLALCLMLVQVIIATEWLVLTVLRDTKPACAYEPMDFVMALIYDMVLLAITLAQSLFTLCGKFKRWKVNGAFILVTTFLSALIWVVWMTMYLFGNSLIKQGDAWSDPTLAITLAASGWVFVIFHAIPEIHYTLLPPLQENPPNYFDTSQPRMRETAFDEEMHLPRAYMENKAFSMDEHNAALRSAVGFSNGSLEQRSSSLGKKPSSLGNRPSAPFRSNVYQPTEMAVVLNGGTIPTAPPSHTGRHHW
UniProt P43088: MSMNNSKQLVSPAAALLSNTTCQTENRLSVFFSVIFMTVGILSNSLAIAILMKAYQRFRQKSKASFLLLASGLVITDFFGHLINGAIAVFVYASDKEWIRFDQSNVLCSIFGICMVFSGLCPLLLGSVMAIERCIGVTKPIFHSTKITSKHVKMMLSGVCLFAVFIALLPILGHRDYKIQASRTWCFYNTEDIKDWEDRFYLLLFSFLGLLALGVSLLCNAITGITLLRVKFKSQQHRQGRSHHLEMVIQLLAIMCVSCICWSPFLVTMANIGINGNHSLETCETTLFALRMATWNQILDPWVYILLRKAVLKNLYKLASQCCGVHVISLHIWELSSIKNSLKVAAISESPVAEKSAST
UniProt P35408: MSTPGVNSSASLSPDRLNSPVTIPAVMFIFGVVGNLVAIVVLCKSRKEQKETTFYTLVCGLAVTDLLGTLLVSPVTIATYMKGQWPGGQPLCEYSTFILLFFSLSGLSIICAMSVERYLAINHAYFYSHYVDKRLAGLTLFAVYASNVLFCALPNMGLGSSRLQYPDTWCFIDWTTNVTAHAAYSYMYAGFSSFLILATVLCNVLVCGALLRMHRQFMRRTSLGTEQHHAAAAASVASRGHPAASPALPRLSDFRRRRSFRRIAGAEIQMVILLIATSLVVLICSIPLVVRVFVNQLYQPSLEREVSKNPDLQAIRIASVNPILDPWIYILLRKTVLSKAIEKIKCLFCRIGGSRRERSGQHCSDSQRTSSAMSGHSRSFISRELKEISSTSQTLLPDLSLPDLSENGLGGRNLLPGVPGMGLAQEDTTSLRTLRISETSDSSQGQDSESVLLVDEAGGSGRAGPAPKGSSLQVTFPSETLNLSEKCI
UniProt P21731: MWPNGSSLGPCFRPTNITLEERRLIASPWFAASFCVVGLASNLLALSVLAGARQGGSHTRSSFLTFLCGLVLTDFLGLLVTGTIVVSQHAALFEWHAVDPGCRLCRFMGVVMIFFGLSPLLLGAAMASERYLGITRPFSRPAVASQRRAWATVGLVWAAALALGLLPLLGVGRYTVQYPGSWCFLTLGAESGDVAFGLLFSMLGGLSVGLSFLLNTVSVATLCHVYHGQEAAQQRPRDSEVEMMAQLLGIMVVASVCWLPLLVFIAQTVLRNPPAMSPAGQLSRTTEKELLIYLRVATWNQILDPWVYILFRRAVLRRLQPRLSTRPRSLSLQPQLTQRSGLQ

B1: N-terminally HA-tagged prostaglandin E2 receptor EP3, human (receptor, UniProt P43115 1-390)
chain: MKETRGYGGDAPFCTRLNHSYTGMWAPERSAEARGNLTRPPGSGEDCGSVSVAFPITMLLTGFVGNALAMLLVSRSYRRRESKRKKSFLLCIGWLALTDLVGQLLTTPVVIVVYLSKQRWEHIDPSGRLCTFFGLTMTVFGLSSLFIASAMAVERALAIRAPHWYASHMKTRATRAVLLGVWLAVLAFALLPVLGVGQYTVQWPGTWCFISTGRGGNGTSSSHNWGNLFFASAFAFLGLLALTVTFSCNLATIKALVSRCRAKATASQSSAQWGRITTETAIQLMGIMCVLSVCWSPLLIMMLKMIFNQTSVEHCKTHTEKQKECNFFLIAVRLASLNQILDPWVYLLLRKILLRKFCQIRYHTNNYASSSTSLPCQCSSTLMWSDHLER
B2: N-terminally HA-tagged prostaglandin E2 receptor EP1, human (receptor, UniProt P34995 1-402)
chain: T1 sequence
B3: N-terminally HA-tagged PGD2 receptor DP2, human (receptor, UniProt Q9Y5Y4 1-395)
chain: MSANATLKPLCPILEQMSRLQSHSNTSIRYIDHAAVLLHGLASLLGLVENGVILFVVGCRMRQTVVTTWVLHLALSDLLASASLPFFTYFLAVGHSWELGTTFCKLHSSIFFLNMFASGFLLSAISLDRCLQVVRPVWAQNHRTVAAAHKVCLVLWALAVLNTVPYFVFRDTISRLDGRIMCYYNVLLLNPGPDRDATCNSRQVALAVSKFLLAFLVPLAIIASSHAAVSLRLQHRGRRRPGRFVRLVAAVVAAFALCWGPYHVFSLLEARAHANPGLRPLVWRGLPFVTSLAFFNSVANPVLYVLTCPDMLRKLRRSLRTVLESVLVDDSELGGAGSSRRRRTSSTARSASPLALCSRPEEPRGPARLLGWLLGSCAASPQTGPLNRALSSTSS

How the values were obtained:
[1] = molecular target: C-terminally FLAG/Myc-tagged GPRC5B (G Protein-Coupled Receptor Class C Group 5 Member B), human (human) (UniProt Q9NZH0); assay: co-IP; HEK cells co-transfected with GPRC5B-FLAG/Myc and HA-tagged receptors; RIPA lysate; precipitation with anti-FLAG magnetic beads, 4 °C, 2 h; blot for HA and FLAG
[2] = molecular target: EP2 receptor, endogenous in mouse resident peritoneal macrophages (mouse (endogenous in RPM)) (UniProt Q62053); assay: co-IP; endogenous EP2 precipitated from RIPA lysate of freshly isolated mouse RPM with anti-EP2 (Abcam ab167171) overnight at 4 °C and A/G-Sepharose beads; IgG and GPRC5B-KO as negative controls
[3] = molecular target: N-terminally HA-tagged PGD2 receptor DP1, human (human) (UniProt Q13258); assay: co-IP; HEK cells co-transfected with FLAG/Myc-tagged GPRC5B (wild type or mutant) and HA-tagged receptors; RIPA lysate; precipitation with anti-HA magnetic beads, 4 °C, 2 h; blot for HA and FLAG
[4] = molecular target: N-terminally HA-tagged prostacyclin receptor IP, human (human) (UniProt P43119); assay: as above
[5] = molecular target: N-terminally HA-tagged prostaglandin E receptor 2 (EP2), human (human) (UniProt P43116); assay: as above
[6] = molecular target: T1, N-terminally HA-tagged prostaglandin E2 receptor EP1, human (human); assay: as above
[7] = molecular target: EP2 receptor C-terminally tagged with mTurquoise2, human (human) (UniProt P43116); assay: FRET or BRET; initial FRET (emission ratio mCit/mTq2) in single transiently transfected HEK293T cells; EP2-mTurq2 donor, mCitrine-tagged receptors as acceptors

Molecule | binding [1] | also measured
N-terminally HA-tagged prostacyclin receptor IP, human (from UniProt P43119 1-386) | binds | 
N-terminally HA-tagged chemokine receptor CCR5, human (from UniProt P51681 1-352) | no binding | 
N-terminally HA-tagged prostaglandin E receptor 2 (EP2), human (from UniProt P43116 1-358) | binds | 
GPRC5B, endogenous in mouse resident peritoneal macrophages (from UniProt Q923Z0 29-410) (receptor) |  | binding [2]: binds
N-terminally HA-tagged PGD2 receptor DP1, human (from UniProt Q13258-1 1-359) | binds | 
N-terminally HA-tagged PGF2a receptor FP, human (from UniProt P43088 1-359) | no binding | 
C-terminally FLAG/Myc-tagged GPRC5B (G Protein-Coupled Receptor Class C Group 5 Member B), human (from UniProt Q9NZH0-1 29-403) |  | binding [3]: binds; binding [4]: binds; binding [5]: binds; binding [6]: binds
GPRC5B mutant set 3 (Q116A, D118A, L128A), human, C-Myc-FLAG (from UniProt Q9NZH0-1 29-403) (receptor) |  | binding [5]: binds
GPRC5B mutant set 2 (F111A), human, C-Myc-FLAG (from UniProt Q9NZH0-1 29-403) (receptor) |  | binding [5]: binds
GPRC5B C-terminally tagged with mCitrine, human (from UniProt Q9NZH0-1 29-403) (receptor) |  | binding [7]: binds
N-terminally HA-tagged prostaglandin E2 receptor EP4, human (from UniProt P35408 1-488) | no binding | 
N-terminally HA-tagged thromboxane A2 receptor TP, human (from UniProt P21731 1-343) | no binding | 
B1 | no binding | 
B2 | binds | 
B3 | no binding | 

Source: PMC11805951
